According to ChEMBL document CHEMBL1201862, “PubChem BioAssay data set” (2004):

System: NCI-H322M
Test: growth of human tumour cells (NCI), 48 h

Structure (SMILES)	GI50
CC[C@@]1(O)C(=O)OCc2c1cc1n(c2=O)Cc2c-1nc1ccc(N)cc1c2CC[Si](C)(C)C	active: < 0.0107 µM
CCOC(=O)OC1C(Br)C2CCC1(C)C2(C)C (stereo not drawn)	inactive: 15.9 µM
O=C1Nc2ccccc2C(=O)/C1=C/NC(=S)NC1CCCCC1	inactive: > 100 µM
CCCCCCCCCN1CCC(=O)C(C(=O)OC)C1 (stereo not drawn)	inactive: 31.8 µM
COc1ccc([C@H]2C=[N+]([O-])O[C@H](OC3CCCC3)[C@@H]2OC(C)=O)cc1OC	inactive: 39 µM
NC(=O)c1nnn(Cc2cc(Cl)c(C(=O)c3ccc(Cl)cc3)c(Cl)c2)c1N [CARBOXYAMIDOTRIAZOLE]	inactive: 24.1 µM
O=C1C=C(O)C(=Cc2c(O)cc(O)cc2O)C(O)=C1	inactive: > 100 µM
COc1ccc2c(c1)[C@@]13CCCC[C@H]1[C@@H](C2)N(C)CC3=O	inactive: 43 µM
Nc1ccc2c(SCCSc3c4ccccc4nc4cc(N)ccc34)c3ccccc3nc2c1	inactive: 24.7 µM
COC1=CC(C2c3cc4c(cc3[C@@H](Nc3ccc(F)cc3)C3COC(=O)[C@H]23)OCO4)=CC(=O)C1=O (stereo partly drawn)	inactive: 31.7 µM
N=C(N)NS(=O)(=O)c1ccc(NNc2c3ccccc3nc3ccccc23)cc1	inactive: 12.6 µM
CN1/C(=C/C=C/C=C/C=C2C(=O)c3ccccc3C2=O)C(C)(C)c2ccccc21	inactive: 65 µM
O=C1CCCC/C1=C\c1ccc(Cl)c(Cl)c1	inactive: 23.4 µM
O=C(NC1CCCCC1NC(c1ccccc1)(c1ccccc1)c1ccccc1)C(=O)NC1CCCCC1NC(c1ccccc1)(c1ccccc1)c1ccccc1 (stereo not drawn)	inactive: > 100 µM
CCNC(=S)NNC(=O)C12CC3CC(CC(C3)C1)C2	inactive: > 100 µM
COC(=O)[C@]1(c2cc3ccccc3[nH]2)CC2CNC1C1OC(C)(C)OC21 (stereo partly drawn)	inactive: > 100 µM
Cc1ccc(C(=O)N/N=C(\N=N\c2ccccc2)c2ccc(N(C)C)cc2)cc1	inactive: > 100 µM
OC1c2ccccc2CCC1C(O)(C(F)(F)F)C(F)(F)F (stereo not drawn)	inactive: > 100 µM
COc1ccc(/C=C2\CCC(C)(CN(C)C)C2=O)cc1OC (stereo not drawn)	inactive: > 100 µM
CN1CC(c2ccccc2)C(O)(C2(c3ccccc3)CN(C)CC(c3ccccc3)C2=O)C(c2ccccc2)C1 (stereo not drawn)	inactive: > 100 µM

Structure (SMILES)	GI50
CN(C)CCNC(=O)c1cccc2c(NC(CCCNC(=N)N)C(=O)O)c3ccccc3nc12 (stereo not drawn)	inactive: 10.6 µM
CCC[C@H](C)[C@H]1NC(=O)[C@@H](NC(=O)[C@@H](CC(C)C)N(C)C(=O)C2CCCN2C(=O)[C@H](C)O)[C@@H](C)OC(=O)[C@H](CC(C)C)N(C)C(=O)[C@@H]2CCCN2C(=O)[C@H](CC(C)C)NC(=O)[C@@H](C)C(=O)[C@H](C(C)C)OC(=O)C[C@@H]1O (stereo partly drawn)	active: < 0.0025 µM
O=C1NC(=O)C(C(=O)C(=O)Nc2ccc(Cl)cc2Cl)C(=O)N1	inactive: > 100 µM
CCCCCCCC(=O)OC(CBr)COC(=O)C(C)(C)C (stereo not drawn)	inactive: > 100 µM
Cc1ccc(O)c(-c2cc(-c3cccc(Cl)c3)c(C#N)c(N)n2)c1	inactive: 24.6 µM
[O-][Cl+3]([O-])([O-])[O-].[O-][Cl+3]([O-])([O-])[O-].c1ccn2c(N3CCCC3)[n+]3c4ccccc4n4c(N5CCCC5)[n+]5ccccc5c4c3c2c1	inactive: > 100 µM
CC1(C)CC23CC(C)(C)c4cccc(c42)OCc2ccc4ccc5ccc(nc5c4n2)COc2cccc1c23	inactive: > 50 µM
C=C(/C=C/C=C(/CCC=C(C)C)COC(C)=O)[C@@H]1CC[C@]2([C@H](CCCO)/C(=C(/C)C=O)CC[C@]2(C)O)[C@@H]1O	inactive: 17.5 µM
Nc1nc2c(ncn2CCCC(c2ccccc2)P(=O)(O)O)c(=O)[nH]1 (stereo not drawn)	inactive: > 100 µM
COc1ccc(C2S/C(=C\c3ccccc3)C(=O)N2NC(=O)Cc2ccccc2)cc1 (stereo not drawn)	inactive: > 100 µM
O=S(=O)(c1ccc(I)cc1)N(c1ccccc1)S(=O)(=O)C(F)(F)C(F)(F)C(F)(F)C(F)(F)F	inactive: 14.2 µM
Cc1ccc(C)n1-c1ccccc1C1C=Cn2c(=O)oc3c(OC(C)C)c(OC(C)C)c(O)c1c32 (stereo not drawn)	inactive: 23.4 µM
O=C1N[C@H](Cc2c[nH]cn2)C(=O)N2CCC[C@@H]12	inactive: > 100 µM
COC(=O)C(=O)C(C(=O)C(=O)Nc1nc2ccc(C)cc2s1)c1nc2ccc([N+](=O)[O-])cc2nc1O (stereo not drawn)	inactive: > 100 µM
COc1ccc(-c2cc(O)c3cc(OC)ccc3n2)cc1	inactive: > 100 µM
CCOC(=O)CCC(NC(=O)c1ccc(OCc2ccc3nc(OC)c(OC)nc3c2)cc1)C(=O)OCC (stereo not drawn)	inactive: 80.4 µM
CC(C)C1OC23CCCCC2C(C#N)(C#N)C1(C#N)C(=N)O3 (stereo not drawn)	inactive: 85.9 µM
CC(C)=NN/C(=N\c1ccc(Cl)cc1)NS(=O)(=O)c1ccc(C)cc1	inactive: > 100 µM
CC1CC(C(=O)OC2OC(COC3OC(CO)C(OC4OC(C)C(O)C(O)C4O)C(O)C3O)C(O)C(O)C2O)C2CCC3(C)C(=CCC4(C)C3CCC3C(C)(CO)C(O)C(O)CC34C)C2C1C (stereo not drawn)	inactive: 31.2 µM
COc1cc([C@@H]2c3cc4c(cc3C[C@H]3COC(=O)[C@@H]32)OCO4)cc(OC)c1OC [DESOXYPODOPHYLLOTOXIN]	active: 0.00944 µM

Structure (SMILES)	GI50
CCC(=O)N1C(=S)SC[C@H]1C(=O)OC	inactive: > 100 µM
Cc1cc(=O)[nH]c2c1C(=O)c1c(C)cc(=O)n(C)c1C2=O	active: 0.0159 µM
CC(C)(C)N/N=C(\C(=O)Nc1nnc(S)[nH]1)C1C(=O)Nc2ccccc2[S+]1[O-] (stereo not drawn)	inactive: > 100 µM
N#Cc1c(Cl)cc(Cl)n2c1nc1ccccc12	inactive: 21.6 µM
CC(=O)/C(=C\NC(N)=S)C(=O)Nc1ccccc1C	inactive: > 100 µM
CC(=O)OCC1OC(n2c(C)c(C(C)=O)c(-c3ccco3)c(C#N)c2=S)C(OC(C)=O)C(OC(C)=O)C1OC(C)=O (stereo not drawn)	inactive: > 100 µM
C=CCOC(=O)N1c2ccc(O)cc2[C@@]23O[C@@]24[C@@H]1C#C/C=C\C#C[C@]3(O)C(OC)(OC)C[C@@H]4C	inactive: 48.3 µM
CCOC(=O)N[C@@H]1C(CC(=O)OC)O[C@H]2OC(C)(C)O[C@H]21 (stereo partly drawn)	inactive: > 100 µM
CC(C)OC(=O)NCCn1cc(-c2ccccc2)nn1	inactive: > 100 µM
COC1(CC[C@@H](C)COC2OC(CO)C(O)C(O)C2O)OC2C[C@H]3[C@@H]4CC[C@H]5C[C@@H](OC6OC(CO)C(OC7OC(CO)C(O)C(O)C7O)C(O)C6OC6OC(C)C(O)C(O)C6O)[C@H](O)C[C@]5(C)[C@H]4CC[C@]3(C)C2[C@@H]1C (stereo partly drawn)	inactive: 1.84 µM
CCC(=O)Nc1ccc(NC(C#N)c2cccc(Oc3ccccc3)c2)cc1 (stereo not drawn)	inactive: 82.4 µM
CCOC(=O)c1nc2ccccc2nc1Oc1ccc(OC)cc1	inactive: > 100 µM
Fc1cccc2c1cc1ccc3cccc4ccc2c1c34	inactive: > 100 µM
CC(C)NCC(O)COC(=O)c1cccs1 (stereo not drawn)	inactive: > 100 µM
COn1cc(C=O)c2ccccc21	inactive: > 82.2 µM
CO[C@H]1C=C[C@]23c4cc5c(cc4CN(CC2O)[C@@H]3C1)OCO5 (stereo partly drawn)	inactive: 2.51 µM
O=C(/C=C/c1ccccc1)c1cc(CN2CCOCC2)c(O)c(CN2CCOCC2)c1	inactive: 20.3 µM
N#CCc1ccc(/C(C#N)=C2/OC(=N)C(c3ccc(CC#N)cc3)C2=O)cc1 (stereo not drawn)	inactive: > 100 µM

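Briefly, cells in 96-well plates were exposed to five compound concentrations for 48 h, and endpoints were estimated by linear interpolation. GI50 = concentration required for 50% inhibition of growth.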 The source made the active and inactive calls. No stated cut-off is given here; in the data, active = GI50 up to about 1.1 µM and inactive = higher.
